These results are taken from the supplement of paper PMC11417369.

Some of the results follow.

The experiment deals with PfAP2-HC AP2 domain (GST-tagged). Description: gcPBM binding intensity (ln(normalized median fluorescence intensity)); higher = stronger DNA binding. An outline of the steps:
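Binding intensity values are the highest Masliner-normalised natural-log median intensity among replicate spots of either probe orientation. The binding step lasted 1 h in 1× PBS with 1% milk, 0.2 mg/ml BSA, 0.5% salmon testes DNA and 0.03% Triton X-100, using GST-tagged P. falciparum DNA-binding domains expressed in E. coli on an Agilent 4 × 180k array of primer-extended double-stranded 36-bp intergenic genomic probes plus negative controls. Alexa488 anti-GST antibody and a 488 nm scan detected bound protein.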
On to “CACAAAAGTAAGCACGCACACACAACCTGAAATAAA [CACACA_site166]”, for which the “gcPBM binding intensity (ln)” value came out at 10.3.

In the case of “ATATTATATAAATATACACACATTGTTTTATAGCAT [CACACA_site2386]”, the “gcPBM binding intensity (ln)” value is 10. Consider “AAAAAAAAATACATATGTACATATACATATATATAT [XGTACX_site2975]”, for which the “gcPBM binding intensity (ln)” value was determined as 9.82.

With “ATATATTTAATTTATGGTACACATAATTTTTTTAGA [XGTACX_site848]”, the “gcPBM binding intensity (ln)” value amounted to 9.44. The value for “AAAATCCACATTTTAGTACACACTTAAAAAATTATT [CACACA_site2955]” was 9.64. With “GAACATACTCAAATAGCACACACATAAATAAAAATG [CACACA_site9283]” the figure was 10.1; with “TTATATATATATATATGTACGAAAAAGAAAAAAAAG [XGTACX_site6761]”, 9.66; with “TATATATATATAATATGTACATATAATCAACATTTT [XGTACX_site3915]”, 9.69. Take “TTAGTCATATATATATGTACACACATATATATATTT [XGTACX_site2948]”: the “gcPBM binding intensity (ln)” value came out at 9.89.

For “AAAAGAAAATAAGAAACACACAAAAATATGTAAAAA [CACACA_site7694]”, the “gcPBM binding intensity (ln)” value turned out to be 10.2. As to “ATTTTTATATAATGAACACACATATTATATCATTTA [CACACA_site1572]”, the “gcPBM binding intensity (ln)” value amounted to 9.71. For the sequence “CCATAGATATTTTATACACACATATAACATATTAAT [CACACA_site6312]”, the “gcPBM binding intensity (ln)” value is 9.76. For the sequence “ATATTGACAAATATTACACACATATATAAATATGTA [CACACA_site7835]”, the “gcPBM binding intensity (ln)” value was determined as 9.69.

For “ATTTATTTTAATATATGTACATATATTTTTTTATTA [XGTACX_site3389]”, the “gcPBM binding intensity (ln)” value was 9.8. With “ATATAATATTACACAAGTACAAAAATTAATACTAAA [XGTACX_site482]”, the “gcPBM binding intensity (ln)” value turned out to be 9.82. With “ACCCATGATTGTTACAGTACTCTACTTTCTAATATA [XGTACX_site98]” the figure was 9.78; with “AAACTGTCGCTCATAAAGAAGAATGAAATACATTAA [TGCATGCA_negctrl_site60]”, 9.45. With “ATATATGCATATTATACACACATATGTATATACATT [CACACA_site965]”, the “gcPBM binding intensity (ln)” value came out at 9.97. “TTTTCTGTATATTGTGTGCACACAATTAACAAAAAA [GTGCAC_site9817]”: the “gcPBM binding intensity (ln)” value is 9.9.

For “AAAAAAAAAAAAAATGCACACAATGGCTAGCTGTAC [CACACA_site2273]”, the “gcPBM binding intensity (ln)” value was 9.83. Take “TGGAGGTCAGTTCACAGTACCCAGGAAATCTACGGA [XGTACX_site1995]”: the “gcPBM binding intensity (ln)” value worked out at 9.37. With “ATAAAATATAAAAAAAGTACAAAAAAAAAAAAAAAA [XGTACX_site6657]” the figure was 9.11; with “CGTTATTATCCACATACACACAGGAATAAAAAATTA [CACACA_site2883]”, 10.1; with “TAGTAATATATATTTTGTACATAAAATAATATATAA [XGTACX_site7971]”, 9.59. As to “ATTTGAAATGCATGAACACACACAGCTATAAATGCA [CACACA_site8229]”, the “gcPBM binding intensity (ln)” value was found to be 9.82.

With “TATATATGTTAAAACGTGCACATATATATATATATA [GTGCAC_site9589]”, the “gcPBM binding intensity (ln)” value amounted to 9.49. Take “TATATATATATATATATTGAAATTTATAATAATATT [TGCATGCA_negctrl_site407]”: the “gcPBM binding intensity (ln)” value amounted to 9.24. Take “AACATAGAAACGTTATGTACATATTGAAGGATATTA [XGTACX_site6015]”: the “gcPBM binding intensity (ln)” value was 9.92. “AAATATTTATACTATACACACCCAATTTAAAAAAAA [CACACA_site6669]”: the “gcPBM binding intensity (ln)” value was found to be 10.2. For the sequence “GAAATAATTTCATATACACACATATACATACATACA [CACACA_site1358]”, the “gcPBM binding intensity (ln)” value is 9.95. In the case of “AAAAGAATATAAAGATACATTGTGATATGGGACAAA [CACACA_negctrl_site405]”, the “gcPBM binding intensity (ln)” value was 9.82. For TATATATATATTGAAGTGCAAAATACTGTACGTAAT, the “gcPBM binding intensity (ln)” value turned out to be 9.75. Turning to “TTAATTCTACTTATTACACACATATTAATCAAAAAT [CACACA_site1478]”, the “gcPBM binding intensity (ln)” value came to 9.7. As to “TATATATATATAAACAGTACACAAATTGTAAATAAA [XGTACX_site8268]”, the “gcPBM binding intensity (ln)” value stood at 9.97.

As for “GTTAATATTTACTACACACACTTAAAATATGTATAT [CACACA_site4194]”, the “gcPBM binding intensity (ln)” value amounted to 9.92. For “TTTTCATTTTTCTTTACACACATATATTTATTTATA [CACACA_site7119]”, the “gcPBM binding intensity (ln)” value was determined as 9.97. The value for “ATATTATAATTAAAACGTACGTATTTATGAATTCAT [XGTACX_site1047]” was 9.58; that for “TACATAAATTAAAACACACACACACTAAAAAAAAAA [CACACA_site7130]” was 10.5. In the case of “TATTAATTAAACCATACACACATAATTTTTTTATAA [CACACA_site843]”, the “gcPBM binding intensity (ln)” value amounted to 9.85. With “ATGGAAGGAAACAATAAAAAAAAAAAAAAATATATA [XGTACX_negctrl_site594]” the figure was 9.39; with CATTTAAAGGACAAGCTGCACTTACAAAATAAAAAA, 9.47. Consider “AATGACAACCTTGTCACACATATATATATATATATA [CACACA_site5977]”, for which the “gcPBM binding intensity (ln)” value worked out at 9.62. Consider “TTTTTTATTTGACAAGCACACACTTAAATATATATA [CACACA_site3358]”, for which the “gcPBM binding intensity (ln)” value worked out at 9.82.

Regarding “AAATGAGTATTCATATGTACACAAATAAAAAATTAA [XGTACX_site2968]”, the “gcPBM binding intensity (ln)” value came to 9.8.
